According to patent publication US20230124669A1 (ADAGENE, published 2023):

How the values were obtained:
[1] = target: T1, Human CD137 (SPR analyte) (human, UniProt Q07011 24-186, limits assumed); assay: SPR (Biacore T200), antibody captured by anti-human IgG on CM5 chip, antigen injected as analyte, 1:1 Langmuir fit
T1 construct: also called CD137H
Experimental: (§1) Biacore T200 (GE Healthcare) was used as a high performance system for real-time biomolecular interaction analysis, using surface plasmon resonance technology (“SPR”). During the measurement, anti-human IgG monoclonal antibody from the Human Antibody Capture Kit provided by Biacore was immobilized on CM5 chips, and IgG sample was injected onto sensor chip. Analytes were injected onto IgG captured flow cell for binding kinetic analysis in HBS-EP buffer.

Human PDL1 (SPR analyte) = target: T2, Human PDL1 (SPR analyte) (human, UniProt Q9NZQ7 in part, limits assumed); assay: as above
Sequence of Human PDL1 (SPR analyte) (Q9NZQ7 19-238 limits assumed): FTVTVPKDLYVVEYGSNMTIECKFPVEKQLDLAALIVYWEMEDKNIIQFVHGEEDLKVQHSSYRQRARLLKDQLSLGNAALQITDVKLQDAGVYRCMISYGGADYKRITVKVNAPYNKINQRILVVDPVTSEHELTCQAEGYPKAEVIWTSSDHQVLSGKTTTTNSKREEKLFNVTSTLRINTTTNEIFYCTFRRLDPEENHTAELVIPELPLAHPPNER
T2 construct: also called PDL1H
Experimental: as §1

Row | Kd [1] | Kd (Human PDL1 (SPR analyte)) | Binder
1 | 3.8 nM | 29.7 nM | TY22122 (bispecific antibody, human IgG1, kappa, Morrison format: anti-CD137 Fab, anti-PDL1 scFv at the C-terminus of the Fc; IgG1; also called CD137 × PDL1 bispecific antibody, format TYF01) heavy: DIQLTQSPSSLSASVGDRVTITCRASQSIGSYLAWYQQKPGKAPKLLIYDASNLETGVPSRFSGSGSGTDFTLTISSLQPEDFATYYCQQGYYLWTFGQGTKVEIKRTVAAPSVFIFPPSDEQLKSGTASVVCLLNNFYPREAKVQWKVDNALQSGNSQESVTEQDSKDSTYSLSSTLTLSKADYEKHKVYACEVTHQGLSSPVTKSFNRGEC light: EVQLVESGGGLVQPGGSLRLSCAASGFSLSTGGVGVGWIRQAPGKGLEWLALIDWADDKYYSPSLKSRLTISRDNSKNTLYLQLNSLRAEDTAVYYCARGGSDTVIGDWFAYWGQGTLVTVSSASTKGPSVFPLAPSSKSTSGGTAALGCLVKDYFPEPVTVSWNSGALTSGVHTFPAVLQSSGLYSLSSVVTVPSSSLGTQTYICNVNHKPSNTKVDKRV[human IgG1 Fc not listed]GGGSEVQLVESGGGLVQPGGSLRLSCAASGYSISSGYYWGWIRQAPGKCLEWIGIIYPSGGGTNYAQKFQGRVTISRDNSKNTLYLQLNSLRAEDTAVYYCARGGGLGFDYWGQGTLVTVSSGGGGSGGGGSGGGGSGGGGSDIQLTQSPSSLSASVGDRVTITCRASQSIPSFLNWYQQKPGKAPKLLIYAASSLQSGVPSRFSGSGSGTDFTLTISSLQPEDFATYYCQHYISWPRQFTFGCGTKVEIKR
2 | 2.4 nM | 32 nM | TY22149 (bispecific antibody, human IgG1, kappa, Morrison format: anti-CD137 Fab, anti-PDL1 scFv; IgG1 with N390C:S400'C; also called CD137 × PDL1 bispecific antibody, format TYF02) heavy: DIQLTQSPSSLSASVGDRVTITCRASQSIGSYLAWYQQKPGKAPKLLIYDASNLETGVPSRFSGSGSGTDFTLTISSLQPEDFATYYCQQGYYLWTFGQGTKVEIKRTVAAPSVFIFPPSDEQLKSGTASVVCLLNNFYPREAKVQWKVDNALQSGNSQESVTEQDSKDSTYSLSSTLTLSKADYEKHKVYACEVTHQGLSSPVTKSFNRGEC light: EVQLVESGGGLVQPGGSLRLSCAASGFSLSTGGVGVGWIRQAPGKGLEWLALIDWADDKYYSPSLKSRLTISRDNSKNTLYLQLNSLRAEDTAVYYCARGGSDTVIGDWFAYWGQGTLVTVSSASTKGPSVFPLAPSSKSTSGGTAALGCLVKDYFPEPVTVSWNSGALTSGVHTFPAVLQSSGLYSLSSVVTVPSSSLGTQTYICNVNHKPSNTKVDKRV[human IgG1 Fc with N390C S400C (EU numbers) not listed]SGGGSEVQLVESGGGLVQPGGSLRLSCAASGYSISSGYYWGWIRQAPGKCLEWIGIIYPSGGGTNYAQKFQGRVTISRDNSKNTLYLQLNSLRAEDTAVYYCARGGGLGFDYWGQGTLVTVSSGGGGSGGGGSGGGGSGGGGSDIQLTQSPSSLSASVGDRVTITCRASQSIPSFLNWYQQKPGKAPKLLIYAASSLQSGVPSRFSGSGSGTDFTLTISSLQPEDFATYYCQHYISWPRQFTFGCGTKVEIKR
